{"source": "PubChem BioAssay AID1347165", "about": "(National Center for Advancing Translational Sciences (NCATS), 2019)", "note": "“And” between values parts separate entries of the source, which are not always exact repeats. Equal values may be shown once. About 5,700 (2.6%) of roughly 220,000 compounds were called active. Inconclusive means that the source gave no clear call. Such entries were picked first, then a sample of the others. Calls come from the whole dose curve; as a rule, active = well fitted inhibition curve with a large enough effect; inconclusive = small, poorly fitted or top-dose-only effect; inactive = no such curve, though single readings can be large or run the other way. A potency beside an inconclusive call is a rough fit, not a confirmed value. Potency is the fitted concentration of half-maximal effect; tags give direction and shape of the fitted curve.", "data": [{"molecular_target": "Lysine-specific demethylase 5B (Homo sapiens) (UniProt Q9UGL1)", "sequence (Q9UGL1 whole entry, looked up)": "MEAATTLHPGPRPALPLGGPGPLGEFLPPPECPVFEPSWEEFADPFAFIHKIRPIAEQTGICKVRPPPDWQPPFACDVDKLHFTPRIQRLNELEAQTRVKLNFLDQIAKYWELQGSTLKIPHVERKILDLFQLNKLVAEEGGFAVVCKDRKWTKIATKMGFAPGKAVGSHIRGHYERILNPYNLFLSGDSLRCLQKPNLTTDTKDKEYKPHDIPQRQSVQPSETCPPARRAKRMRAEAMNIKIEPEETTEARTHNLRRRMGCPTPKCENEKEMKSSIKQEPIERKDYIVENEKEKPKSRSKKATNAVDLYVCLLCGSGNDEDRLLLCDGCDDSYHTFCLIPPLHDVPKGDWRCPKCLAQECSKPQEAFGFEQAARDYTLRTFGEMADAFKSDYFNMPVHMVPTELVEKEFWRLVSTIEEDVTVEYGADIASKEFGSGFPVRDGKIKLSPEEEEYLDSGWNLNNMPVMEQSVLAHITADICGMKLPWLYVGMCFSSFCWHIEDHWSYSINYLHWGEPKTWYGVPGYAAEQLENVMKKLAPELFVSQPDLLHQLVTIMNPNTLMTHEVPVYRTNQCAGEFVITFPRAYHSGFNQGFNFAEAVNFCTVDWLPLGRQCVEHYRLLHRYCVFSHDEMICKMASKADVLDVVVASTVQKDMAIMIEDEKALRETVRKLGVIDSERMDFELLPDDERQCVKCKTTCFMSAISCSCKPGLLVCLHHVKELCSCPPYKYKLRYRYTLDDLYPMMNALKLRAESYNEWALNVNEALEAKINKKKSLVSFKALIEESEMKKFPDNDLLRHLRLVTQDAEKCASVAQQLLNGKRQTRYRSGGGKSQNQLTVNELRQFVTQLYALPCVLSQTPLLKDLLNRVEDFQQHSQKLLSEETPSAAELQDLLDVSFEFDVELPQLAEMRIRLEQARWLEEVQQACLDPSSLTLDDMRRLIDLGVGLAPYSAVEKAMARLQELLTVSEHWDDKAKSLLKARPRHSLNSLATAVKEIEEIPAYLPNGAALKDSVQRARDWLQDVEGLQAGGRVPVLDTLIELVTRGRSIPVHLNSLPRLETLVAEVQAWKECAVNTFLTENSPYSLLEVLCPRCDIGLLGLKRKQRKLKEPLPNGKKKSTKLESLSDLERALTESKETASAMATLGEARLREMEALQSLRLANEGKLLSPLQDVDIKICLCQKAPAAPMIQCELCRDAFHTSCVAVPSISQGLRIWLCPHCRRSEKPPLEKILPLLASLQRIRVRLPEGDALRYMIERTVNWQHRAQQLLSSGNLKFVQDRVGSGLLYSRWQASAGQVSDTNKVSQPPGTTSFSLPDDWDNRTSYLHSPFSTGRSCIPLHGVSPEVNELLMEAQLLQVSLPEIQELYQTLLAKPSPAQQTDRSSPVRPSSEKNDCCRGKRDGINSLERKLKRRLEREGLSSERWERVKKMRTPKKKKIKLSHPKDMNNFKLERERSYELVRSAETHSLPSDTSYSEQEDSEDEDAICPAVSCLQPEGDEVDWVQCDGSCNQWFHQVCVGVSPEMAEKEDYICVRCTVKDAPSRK", "assay": "Primary screen for KDM5B Histone Demethylases FDH-coupled qHTS; note: nearly all actives have a fitted effect of over 70% in size; for activity change, negative = inhibition: 0% is about no effect", "conditions": "FDH-coupled NADH fluorescence (FDH is formaldehyde dehydrogenase); activity change, negative = inhibition: at 57.7 µM (top of the series) unless noted", "outline": "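Measured: NADH fluorescence change, 30 min, RT. System: KDM5BΔAP 200 nM final, H3K4me3 peptide, α-KG, Fe(II), ascorbate, NAD⁺ plus FDH, pH 7.5 HEPES. Compounds: titrated, 10 min pre-incubation with enzyme.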", "values": [{"smiles": "O=C1NCCN(Cc2cccc(Oc3ccccc3)c2)C1CC(=O)N1CCCOCC1", "note": "(configuration not stated)", "Potency": "inconclusive: 11.2 µM [inhibitor, partial curve]"}, {"smiles": "COCCN1Cc2nc(-c3cc(F)cc(F)c3)ccc2OCC1=O", "activity change, negative = inhibition": "inactive: -12.4% [at 86.2 µM]"}, {"smiles": "CCCCn1c(=O)[nH]c(=O)c2c1nc(-c1ccc(OCC#N)c(OC)c1)n2C", "Potency": "inconclusive: 10 µM [inhibitor, partial curve, poor fit]"}, {"smiles": "Cc1cccc(C(=O)NC(c2ccc3c(c2)OCCCO3)C(C)C)n1", "note": "(configuration not stated)", "activity change, negative = inhibition": "inactive: 9.74%"}, {"smiles": "COc1ccc(NC(=O)c2c(NCc3ccc(OC)c(OC)c3OC)sc3c2CCC3)c(OC)c1", "Potency": "inconclusive: 31.6 µM [inhibitor, partial curve, poor fit]"}, {"smiles": "COc1ccccc1NC(=O)CSc1ccc(-c2ccco2)nn1", "Potency": "inconclusive: 20 µM [inhibitor, single point]"}, {"smiles": "COc1ccc2c(-c3ccccc3)cc(SCC(=O)NCC(C)C)nc2c1", "Potency": "inconclusive: 20 µM [inhibitor, partial curve, poor fit]"}, {"smiles": "CCN1c2cc(C(=O)Nc3cccc(SC)c3)ccc2C(=O)N2CCCCC21", "note": "(configuration not stated)", "Potency": "inconclusive: 35.5 µM [inhibitor, partial curve, poor fit]"}, {"smiles": "CC(=O)Nc1cccc(-c2cc(C(=O)NCc3c(C)cc(C)[nH]c3=O)c3c(c2)N(C(C)C)CCO3)c1", "Potency": "active: 28.2 µM"}, {"smiles": "O=C(CCc1ccccc1)NCCn1cccc1-c1nc(-c2ccc3c(c2)OCO3)no1", "Potency": "active: 31.6 µM"}, {"smiles": "CCCCn1c(=O)[nH]c(=O)c2c1nc(CSc1nccn1-c1cccc(C)c1)n2C", "activity change, negative = inhibition": "inactive: 7.02%"}, {"smiles": "CC(C)Cc1ccc(S(=O)(=O)NCc2nc3cccnc3n2Cc2ccccc2)cc1", "Potency": "inconclusive: 1.26 µM [inhibitor, full curve, poor fit]"}, {"smiles": "N#Cc1nc(-c2ccccc2F)oc1N1CCN(Cc2ccccc2)CC1", "Potency": "inconclusive: 14.1 µM [inhibitor, partial curve, poor fit]"}, {"smiles": "CN1CC(=O)N(C2CCCNCC2)Cc2c1ncnc2N1CCC(O)CC1", "note": "(configuration not stated)", "Potency": "inconclusive: 44.7 µM [inhibitor, partial curve]"}, {"smiles": "CCOc1ccccc1NC(=O)Nc1cccc(-c2ccc(N3CCCC3)nn2)c1", "Potency": "inconclusive: 28.2 µM [inhibitor, partial curve, poor fit]"}, {"smiles": "CCOC(=O)NNC(=S)NCC1CCCO1", "note": "(configuration not stated)", "activity change, negative = inhibition": "inactive: 16.4%"}, {"smiles": "CCC(CC)C(=O)N[C@H]1CCN2C(=O)c3cc(-c4cccs4)ccc3NC(=O)[C@@H]2C1", "Potency": "inconclusive: 3.55 µM [inhibitor, full curve]"}, {"smiles": "CN(C)c1nc(OCC#N)nc(N2CCOCC2)n1", "activity change, negative = inhibition": "inactive: 25.8%"}, {"smiles": "CCCCN(C)S(=O)(=O)c1ccc(NC2=NS(=O)(=O)c3ccccc32)cc1", "Potency": "inconclusive: 28.2 µM [inhibitor, partial curve, poor fit]"}, {"smiles": "COC(=O)Cc1cccc2c(=O)c3ccccc3oc12", "activity change, negative = inhibition": "inconclusive: -30.1% [inhibitor]"}, {"smiles": "CCc1nc2ccccc2c(NC(=O)CN2CCN(c3ccccc3)CC2)c1C", "activity change, negative = inhibition": "inactive: -43.1%"}, {"smiles": "COc1ccc(-c2cc(N3CCCC(NC(=O)Cc4cccc(F)c4)C3)n[nH]2)cc1", "note": "(configuration not stated)", "Potency": "inconclusive: 20 µM [inhibitor, partial curve, poor fit]"}, {"smiles": "Cc1ccc(C(=O)NCC(=O)NCCN2CCc3ccccc3C2)cc1", "activity change, negative = inhibition": "inactive: 2.37%"}, {"smiles": "Cc1ccc(-c2c(NC(=O)CN3CCN(CCO)CC3)oc3ccccc3c2=O)cc1", "activity change, negative = inhibition": "inactive: 3.59%"}, {"smiles": "COc1ccc(CCc2nc3nccc(-c4ccc(OC)cc4)n3n2)cc1", "Potency": "active: 25.1 µM"}, {"smiles": "Cc1nnc(NC(=O)c2csc(NC(C)C)n2)s1", "Potency": "inconclusive: 39.8 µM [inhibitor, single point]"}, {"smiles": "COc1cccc(CNC(=O)Cn2nc(-c3ccc(C)cc3)ccc2=O)c1", "Potency": "inconclusive: 31.6 µM [inhibitor, single point]"}, {"smiles": "COc1ccc(C2Cn3cnc(-c4nc(-c5ccc(OC(C)C)cc5)no4)c3CO2)cc1", "note": "(configuration not stated)", "Potency": "inconclusive: 28.2 µM [inhibitor, partial curve]"}, {"smiles": "CCN1c2cc(C(=O)Nc3cc(OC)cc(OC)c3)ccc2C(=O)N2CCCCCC21", "note": "(configuration not stated)", "Potency": "inconclusive: 25.1 µM [inhibitor, partial curve, poor fit]"}, {"smiles": "NC1(C(=O)N2CCCC(N3CCN(c4cccc(Cl)c4)CC3)C2)CC1", "note": "(configuration not stated)", "Potency": "inconclusive: 28.2 µM [inhibitor, partial curve, poor fit]"}, {"smiles": "O=C1CC2(CCN(Cc3ccccc3)CC2)Oc2ccccc21", "Potency": "active: 35.5 µM"}, {"smiles": "CSc1ccc(CNC(=O)c2cc3c(N4CCCC4)nc(C)cn3n2)cc1", "Potency": "active: 28.2 µM"}, {"smiles": "COCCN1Cc2ccc(Nc3cccnc3)nc2C(C)(C(=O)Nc2cccc(F)c2)C1", "note": "(configuration not stated)", "Potency": "inconclusive: 28.2 µM [inhibitor, partial curve]"}, {"smiles": "Cc1cc(OC(C)C(=O)N2CCC(c3nc4ccccc4o3)CC2)ccc1Cl", "note": "(configuration not stated)", "Potency": "inconclusive: 28.2 µM [inhibitor, single point]"}, {"smiles": "COC(=O)c1ccc(Nc2nc(-c3ccccc3Cl)nc3ccccc23)cc1", "Potency": "inconclusive: 31.6 µM [inhibitor, partial curve, poor fit]"}, {"smiles": "Clc1cccc(-c2nc3ccccn3c2Nc2ccc3c(c2)OCCO3)c1", "Potency": "inconclusive: 31.6 µM [inhibitor, partial curve, poor fit]"}, {"smiles": "COc1ccc(N2C(=O)CSC23C(=O)N(CC(=O)Nc2ccccc2F)c2ccccc23)cc1", "note": "(configuration not stated)", "activity change, negative = inhibition": "inconclusive: -31.2% [inhibitor]"}, {"smiles": "Clc1ccc2oc([C@H]3CCN(Cc4cccs4)C3)nc2c1", "Potency": "inconclusive: 44.7 µM [inhibitor, partial curve, poor fit]"}, {"smiles": "COc1ccccc1-c1ccc2ncc(Nc3ccc(C(N)=O)cc3)n2n1", "Potency": "inconclusive: 44.7 µM [inhibitor, partial curve, poor fit]"}, {"smiles": "CC(=O)Nc1ccc2oc(-c3cc(C)cc(C)c3)nc2c1", "Potency": "inconclusive: 1.78 µM [inhibitor, partial curve, poor fit]"}, {"smiles": "COCCNC(=S)NCCN(Cc1ccccc1)C(=S)NCCOC", "activity change, negative = inhibition": "inactive: 8.08%"}, {"smiles": "CC1CCCC(NC(=O)Cc2cccc3ccccc23)C1C", "note": "(configuration not stated)", "activity change, negative = inhibition": "inactive: 19.5%"}, {"smiles": "C[S+](=O)([O-])c1ccc(-c2cc3c(ccn3Cc3ccncc3)c(N3CCOCC3)n2)cc1", "Potency": "active: 25.1 µM"}, {"smiles": "CN(C)CC(C)(C)NC(=O)c1csc2nc(-c3cccc(C(F)(F)F)c3)cn12", "Potency": "inconclusive: 28.2 µM [inhibitor, partial curve, poor fit]"}, {"smiles": "COC(=O)C1=C(CS(=O)(=O)c2ccc(C)cc2C)NC(=O)NC1c1ccc(O)cc1", "note": "(configuration not stated)", "activity change, negative = inhibition": "inactive: 20.4%"}, {"smiles": "O=C(Nc1nccs1)c1ccc2c(c1)OCCN(c1cccc(OC(F)(F)F)c1)C2", "Potency": "inconclusive: 50.1 µM [inhibitor, single point]"}, {"smiles": "Cc1cc2occ(CC(=O)Nc3ccc(Cl)cc3F)c2cc1C", "activity change, negative = inhibition": "inactive: -11.3%"}, {"smiles": "O=C(COC(=O)C12CC3CC(CC(Cl)(C3)C1)C2)Nc1cccc([N+](=O)[O-])c1", "activity change, negative = inhibition": "inactive: -16.2%"}, {"smiles": "CCCc1cc(CN(C)C(=O)CC2C(=O)NCCN2CCCc2ccccc2)[nH]n1", "note": "(configuration not stated)", "Potency": "inconclusive: 17.8 µM [inhibitor, partial curve, poor fit]"}, {"smiles": "Cc1ccc2c(C(=O)N3CCN(CC(C)C)CC3)cc(NC(=O)C3CCC3)cc2n1", "Potency": "active: 22.4 µM"}, {"smiles": "N#C/C(=C/c1ccccc1Cl)c1nc2ccccc2c(=O)[nH]1", "activity change, negative = inhibition": "inactive: -9.46%"}, {"smiles": "Nc1nc2c(s1)C(c1cccc(F)c1F)CC(=O)N2", "note": "(configuration not stated)", "Potency": "active: 22.4 µM"}, {"smiles": "C1CNCC(c2nc(C3CCOCC3)no2)C1", "note": "(configuration not stated)", "Potency": "inconclusive: 20 µM [inhibitor, partial curve]"}, {"smiles": "COc1ccc(N2CCN(C3(c4ccccc4)C(=O)c4ccccc4C3=O)CC2)cc1", "Potency": "inconclusive: 2.82 µM [inhibitor, partial curve, poor fit]"}, {"smiles": "Cc1ccc(Cl)cc1N(C)C(=O)c1cc2c(Cl)nc3ccccc3c2s1", "activity change, negative = inhibition": "inconclusive: -31.2% [inhibitor]"}, {"smiles": "Cc1ccc(-c2nn(CC(=O)O)c(=O)c3ccccc23)cc1", "activity change, negative = inhibition": "inactive: 8.59%"}, {"smiles": "CCN1CCCC2(CCN(C(=O)Cn3ccccc3=O)C2)C1=O", "note": "(configuration not stated)", "Potency": "inconclusive: 31.6 µM [inhibitor, partial curve, poor fit]"}, {"smiles": "CNC(=O)NC(=O)C(C)Sc1ncnc2ccccc12", "note": "(configuration not stated)", "Potency": "inconclusive: 39.8 µM [inhibitor, single point]"}, {"smiles": "CN1[C@@H](CCC(=O)NCc2ccco2)CNC(=O)[C@@H]2[C@H]1CCN2Cc1ccc(C(=O)O)cc1", "Potency": "inconclusive: 39.8 µM [inhibitor, partial curve, poor fit]"}, {"smiles": "CCOc1ccccc1CN1CCC2(CCN(C(=O)c3ccc(C)cc3)CC2)Oc2ccccc21", "Potency": "inconclusive: 28.2 µM [inhibitor, partial curve, poor fit]"}, {"smiles": "O=Cc1c(-c2ccc(Cl)cc2)[nH]c2ccccc12", "Potency": "inconclusive: 28.2 µM [inhibitor, single point]"}, {"smiles": "Cc1oc(-c2ccccc2)nc1CC(=O)N1Cc2ccccc2C(O)C1", "note": "(configuration not stated)", "Potency": "inconclusive: 17.8 µM [inhibitor, single point]"}, {"smiles": "c1cnc2[nH]cc(-c3nc4ccncc4[nH]3)c2c1", "Potency": "inconclusive: 141 µM [inhibitor, partial curve, poor fit] and active: 35.5 µM"}, {"smiles": "CN(Cc1ccccc1)C(=O)C[C@@H]1O[C@H](CNC(=O)Nc2cccc(F)c2)[C@@H](O)[C@H]1O", "Potency": "inconclusive: 28.2 µM [inhibitor, single point]"}, {"smiles": "OCc1cccc(Nc2nc(-c3cccs3)nc3ccccc23)c1", "Potency": "inconclusive: 28.2 µM [inhibitor, single point]"}, {"smiles": "Cc1ccc(-c2[nH]ncc2CNC(C)c2cccs2)cc1", "note": "(configuration not stated)", "activity change, negative = inhibition": "inactive: -3.16%"}, {"smiles": "Cc1nc(CN2Cc3nc(-c4ccccc4)ccc3OCC2=O)cs1", "activity change, negative = inhibition": "inactive: -9.1% [at 86.2 µM]"}]}]}
